Data from PMC10228019.
No constants are given. Whether binding was seen depends on the method and setting. Binding seen in cells or lysates may run through a third protein. Some results given as binding are weak or reduced against the parent protein; the word gives no strength.

By UniProt entry, the sequences of proteins in these tests, tags left out. Where a name states a change or a piece, a line headed by the entry shows the natural chain unless it says otherwise.
UniProt Q9Y3S2: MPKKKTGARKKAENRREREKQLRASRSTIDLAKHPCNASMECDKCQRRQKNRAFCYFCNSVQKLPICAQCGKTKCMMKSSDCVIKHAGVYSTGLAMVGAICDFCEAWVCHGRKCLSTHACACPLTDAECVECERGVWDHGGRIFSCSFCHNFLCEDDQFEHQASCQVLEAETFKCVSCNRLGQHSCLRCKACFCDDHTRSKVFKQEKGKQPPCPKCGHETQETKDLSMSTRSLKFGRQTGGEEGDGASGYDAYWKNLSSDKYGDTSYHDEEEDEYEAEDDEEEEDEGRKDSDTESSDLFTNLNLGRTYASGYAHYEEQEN
UniProt P0DMV8: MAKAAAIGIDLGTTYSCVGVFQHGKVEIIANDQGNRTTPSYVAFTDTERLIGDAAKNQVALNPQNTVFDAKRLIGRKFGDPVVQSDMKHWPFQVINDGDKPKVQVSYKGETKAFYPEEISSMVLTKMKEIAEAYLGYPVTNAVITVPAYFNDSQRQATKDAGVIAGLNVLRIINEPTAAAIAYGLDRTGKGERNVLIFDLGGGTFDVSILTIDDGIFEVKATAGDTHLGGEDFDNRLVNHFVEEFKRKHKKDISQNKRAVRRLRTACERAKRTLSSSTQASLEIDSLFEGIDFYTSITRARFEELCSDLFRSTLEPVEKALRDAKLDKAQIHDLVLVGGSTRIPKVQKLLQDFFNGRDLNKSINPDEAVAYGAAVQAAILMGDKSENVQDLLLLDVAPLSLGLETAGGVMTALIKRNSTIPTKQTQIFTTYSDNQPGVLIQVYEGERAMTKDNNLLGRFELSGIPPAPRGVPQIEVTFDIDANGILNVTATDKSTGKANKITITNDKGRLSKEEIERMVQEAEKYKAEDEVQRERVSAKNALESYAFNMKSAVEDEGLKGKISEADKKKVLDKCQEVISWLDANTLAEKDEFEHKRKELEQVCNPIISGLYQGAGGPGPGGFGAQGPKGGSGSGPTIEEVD
UniProt P11142: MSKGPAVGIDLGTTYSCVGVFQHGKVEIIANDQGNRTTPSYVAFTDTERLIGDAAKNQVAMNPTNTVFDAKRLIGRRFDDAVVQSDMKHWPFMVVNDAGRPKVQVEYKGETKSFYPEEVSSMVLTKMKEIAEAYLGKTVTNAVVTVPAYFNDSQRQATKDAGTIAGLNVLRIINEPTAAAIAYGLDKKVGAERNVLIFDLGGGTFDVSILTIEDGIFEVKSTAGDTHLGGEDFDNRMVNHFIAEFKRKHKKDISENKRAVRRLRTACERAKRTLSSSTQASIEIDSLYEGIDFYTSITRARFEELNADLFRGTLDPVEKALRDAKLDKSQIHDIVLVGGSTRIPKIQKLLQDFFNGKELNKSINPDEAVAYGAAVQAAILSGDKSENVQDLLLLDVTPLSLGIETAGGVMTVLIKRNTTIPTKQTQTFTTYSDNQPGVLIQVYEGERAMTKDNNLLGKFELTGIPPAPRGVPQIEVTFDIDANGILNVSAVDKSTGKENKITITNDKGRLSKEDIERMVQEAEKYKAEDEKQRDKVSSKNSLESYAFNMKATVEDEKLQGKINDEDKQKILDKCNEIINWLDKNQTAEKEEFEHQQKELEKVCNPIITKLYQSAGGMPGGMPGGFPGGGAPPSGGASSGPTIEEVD

Target: FLAG-NOA36 (ZNF330/NOA36, Zinc Finger protein 330), expressed in HEK293 cells (human) (UniProt Q9Y3S2)
Assay: co-IP; HEK293 cells co-transfected with FLAG-NOA36 and one HA-tagged HSP construct; anti-FLAG magnetic beads; western blot with anti-HA

binding | Substance
binds | HA-HSPA1 (from UniProt P0DMV8 1-641)
binds | HA-HSPA8 (from UniProt P11142-1 1-646)
binds | HA-SBD + LD (HA-tagged truncated HSPA8 containing the SBD + LD domains) (from UniProt P11142 385-646) (domain or fragment)
no binding | HA-tagged truncated HSPA8 containing the NBD (from UniProt P11142 1-384) (domain or fragment)
no binding | HA-tagged truncated HSPA8 containing the NBD + SBD (from UniProt P11142 1-543) (domain or fragment)
